According to patent US7772236B2, “Substituted pyrazoles” (Ortho McNeil Pharmaceutical, Inc., priority 2000, dated 2010):

The compounds below were run against Recombinant human cathepsin S (CatS) (Homo sapiens, UniProt P25774) (assay: biochemical).
`COc1ccccc1N1CCN(CC(O)Cn2nc(-c3ccc(C(F)(F)F)cc3)c3c2CCN(C(C)=O)C3)CC1` (stereo not drawn) [Example 140, 1-[1-{2-Hydroxy-3-[4-(2-methoxy-phenyl)-piperazin-1-yl]-propyl}-3-(4-trifluoromethyl-phenyl)-1,4,6,7-tetrahydro-pyrazolo[4,3-c]pyridin-5-yl]-ethanone] gave an IC50 of 0.53 µM. `COc1ccccc1N1CCN(CC(O)Cn2nc(-c3ccc([N+](=O)[O-])cc3)c3c2CCN(C(C)=O)C3)CC1` (stereo not drawn) [Example 141, 1-[1-{2-Hydroxy-3-[4-(2-methoxy-phenyl)-piperazin-1-yl]-propyl}-3-(4-nitro-phenyl)-1,4,6,7-tetrahydro-pyrazolo[4,3-c]pyridin-5-yl]-ethanone] gave an IC50 of 1.4 µM. In the case of `CC(=O)N1CCc2c(c(-c3ccc(Cl)cc3)nn2CC(O)CN2CCN(c3ccccc3C#N)CC2)C1` (stereo not drawn) [Example 143, 2-(4-{3-[5-Acetyl-3-(4-chloro-phenyl)-4,5,6,7-tetrahydro-pyrazolo[4,3-c]pyridin-1-yl]-2-hydroxy-propyl}-piperazin-1-yl)-benzonitrile], the IC50 is reported as 0.35 µM. For `CC(=O)N1CCc2c(c(-c3ccc(Cl)cc3)nn2CC(O)CN2CCN(c3ccc(C)cc3)C(C)C2)C1` (stereo not drawn) [Example 148, 1-{3-(4-Chloro-phenyl)-1-[2-hydroxy-3-(3-methyl-4-p-tolyl-piperazin-1-yl)-propyl]-1,4,6,7-tetrahydro-pyrazolo[4,3-c]pyridin-5-yl}-ethanone], the IC50 was 0.63 µM. `CC(=O)N1CCc2c(c(-c3ccc(Cl)cc3)nn2CC(O)CN2CCN(c3cccc(C)c3)C(C)C2)C1` (stereo not drawn) [Example 149, 1-{3-(4-Chloro-phenyl)-1-[2-hydroxy-3-(3-methyl-4-m-tolyl-piperazin-1-yl)-propyl]-1,4,6,7-tetrahydro-pyrazolo[4,3-c]pyridin-5-yl}-ethanone] was tested, and the IC50 was 0.86 µM. Compound `CC(=O)N1CCc2c(c(-c3ccc(Cl)cc3)nn2CC(O)CN2CCN(c3cc(C(F)(F)F)ccn3)CC2)C1` (stereo not drawn) [Example 150, 1-(3-(4-Chloro-phenyl)-1-{2-hydroxy-3-[4-(4-trifluoromethyl-pyridin-2-yl)-piperazin-1-yl]-propyl}-1,4,6,7-tetrahydro-pyrazolo[4,3-c]pyridin-5-yl)-ethanone] has an IC50 of 1.8 µM. For `CC(=O)N1CCc2c(c(-c3ccc(Cl)cc3)nn2CC(O)CN2CCN(c3ncccn3)CC2)C1` (stereo not drawn) [Example 156, 1-{3-(4-Chloro-phenyl)-1-[2-hydroxy-3-(4-pyrimidin-2-yl-piperazin-1-yl)-propyl]-1,4,6,7-tetrahydro-pyrazolo[4,3-c]pyridin-5-yl}-ethanone], the IC50 was 2.9 µM. Compound `N#Cc1ccccc1N1CCN(CC(O)Cn2nc(-c3ccc(Cl)cc3)c3c2CCC3)CC1` (stereo not drawn) [Example 159, 2-(4-{3-[3-(4-Chloro-phenyl)-5,6-dihydro-4H-cyclopentapyrazol-1-yl]-2-hydroxy-propyl}-piperazin-1-yl)-benzonitrile] has an IC50 of 6.2 µM. `CC(=O)OC(CN1CCN(c2ccccc2C)CC1)Cn1nc(-c2ccc(Cl)cc2)c2c1CCN(C(C)=O)C2` (stereo not drawn) [Example 164, Acetic acid 1-[5-acetyl-3-(4-chloro-phenyl)-4,5,6,7-tetrahydro-pyrazolo[4,3-c]pyridin-1-ylmethyl]-2-(4-o-tolyl-piperazin-1-yl)-ethyl ester] was tested, and the IC50 was 1.9 µM. Work on `CC(=O)N1CCc2c(c(-c3ccc(Cl)cc3)nn2CC(CN2CCN(c3ccccc3C)CC2)OC(=O)NC(=O)c2ccccc2)C1` (stereo not drawn) [Example 167, Benzoyl-carbamic acid 1-[5-acetyl-3-(4-chloro-phenyl)-4,5,6,7-tetrahydro-pyrazolo[4,3-c]pyridin-1-ylmethyl]-2-(4-o-tolyl-piperazin-1-yl)-ethyl ester] yielded an IC50 of 4.9 µM. `CC(=O)N1CCc2c(c(-c3cccc(Cl)c3)nn2CC(O)CN2CCN(c3ccccc3C#N)CC2)C1` (stereo not drawn) [Example 170, 2-(4-{3-[5-Acetyl-3-(3-chloro-phenyl)-4,5,6,7-tetrahydro-pyrazolo[4,3-c]pyridin-1-yl]-2-hydroxy-propyl}-piperazin-1-yl)-benzonitrile] showed an IC50 of 4.5 µM. Work on `CC(=O)N1CCc2c(c(-c3ccc(Cl)cc3)nn2CC=CCN2CCN(c3ccccc3C#N)CC2)C1` [Example 174, 2-(4-{4-[5-Acetyl-3-(4-chloro-phenyl)-4,5,6,7-tetrahydro-pyrazolo[4,3-c]pyridin-1-yl]-but-2-enyl}-piperazin-1-yl)-benzonitrile] yielded an IC50 of 1.4 µM. Work on `COc1ccccc1N1CCN(CCCn2nc(-c3ccc(Cl)cc3)c3c2CCN(C(C)=O)C3)CC1` [Example 176, 1-(3-(4-Chloro-phenyl)-1-{3-[4-(2-methoxy-phenyl)-piperazin-1-yl]-propyl}-1,4,6,7-tetrahydro-pyrazolo[4,3-c]pyridin-5-yl)-ethanone] yielded an IC50 of 1.6 µM. `CC(=O)N1CCc2c(c(-c3ccc(Cl)cc3)nn2CC(CN2CCN(c3ccccc3C)CC2)OCC#N)C1` (stereo not drawn) [Example 181, [1-[5-Acetyl-3-(4-chloro-phenyl)-4,5,6,7-tetrahydro-pyrazolo[4,3-c]pyridin-1-ylmethyl]-2-(4-o-tolyl-piperazin-1-yl)-ethoxy]-acetonitrile] gave an IC50 of 1.7 µM. In the case of `Oc1ccccc1N1CCN(CC(O)Cn2nc(-c3ccc(Cl)cc3)c3c2CCCC3)CC1` (stereo not drawn) [Example 185, 2-(4-{3-[3-(4-Chloro-phenyl)-4,5,6,7-tetrahydro-indazol-1-yl]-2-hydroxy-propyl}-piperazin-1-yl)-phenol], the IC50 is reported as 8.4 µM. In the case of `Cc1ccccc1N1CCN(CC(O)Cn2nc(-c3ccc(Cl)cc3)c3c2CCN(C(N)=O)C3)CC1` (stereo not drawn) [Example 190, 3-(4-Chloro-phenyl)-1-[2-hydroxy-3-(4-o-tolyl-piperazin-1-yl)-propyl]-1,4,6,7-tetrahydro-pyrazolo[4,3-c]pyridine-5-carboxylic acid amide], the IC50 is reported as 0.26 µM. Work on `Cc1ccccc1N1CCN(CC(O)Cn2nc(-c3ccc(I)cc3)c3c2CCN(C(=O)OC(C)(C)C)C3)CC1` (stereo not drawn) [Example 192, 1-[2-Hydroxy-3-(4-o-tolyl-piperazin-1-yl)-propyl]-3-(4-iodo-phenyl)-1,4,6,7-tetrahydro-pyrazolo[4,3-c]pyridine-5-carboxylic acid tert-butyl ester] yielded an IC50 of 0.79 µM. In the case of `COc1ccccc1N1CCN(CC(O)Cn2nc(-c3ccc(Cl)c(C)c3)c3c2CCN(C(C)=O)C3)CC1` (stereo not drawn) [Example 193, 1-(3-(4-Chloro-3-methyl-phenyl)-1-{2-hydroxy-3-[4-(2-methoxy-phenyl)-piperazin-1-yl]-propyl}-1,4,6,7-tetrahydro-pyrazolo[4,3-c]pyridin-5-yl)-ethanone], the IC50 is reported as 0.33 µM. Compound `CC(=O)N1CCc2c(c(-c3ccc(Cl)cc3)nn2CC(O)CN2CCN(S(=O)(=O)c3ccccc3Cl)CC2)C1` (stereo not drawn) [Example 195, 1-[1-{3-[4-(2-Chloro-benzenesulfonyl)-piperazin-1-yl]-2-hydroxy-propyl}-3-(4-chloro-phenyl)-1,4,6,7-tetrahydro-pyrazolo[4,3-c]pyridin-5-yl]-ethanone] has an IC50 of 3.3 µM. `COc1ccccc1N1CCN(CC(O)Cn2nc(-c3ccc(Cl)cc3F)c3c2CCN(C(C)=O)C3)CC1` (stereo not drawn) [Example 196, 1-(3-(4-Chloro-2-fluoro-phenyl)-1-{2-hydroxy-3-[4-(2-methoxy-phenyl)-piperazin-1-yl]-propyl}-1,4,6,7-tetrahydro-pyrazolo[4,3-c]pyridin-5-yl)-ethanone] showed an IC50 of 1.9 µM. Compound `Cc1ccccc1N1CCN(CC(O)Cn2nc(-c3ccc(Cl)cc3)c3c2CCN(C(=O)Cc2ccccc2)C3)CC1` (stereo not drawn) [Example 199, 1-{3-(4-Chloro-phenyl)-1-[2-hydroxy-3-(4-o-tolyl-piperazin-1-yl)-propyl]-1,4,6,7-tetrahydro-pyrazolo[4,3-c]pyridin-5-yl}-2-phenyl-ethanone] has an IC50 of 1.6 µM.
